# Assay results reported in patent US20230212288A1 (published 2023).
# B1: 309_05_B08 (bispecific antibody)
# chain: DIQLTQTPASLAVSLGQRATISCKASQSVDYDGDSYLNWYQQIPGQPPKLLIYDASNLVSGIPPRFSGSGSGTDFTLNIHPVEKVDAATYHCQQSTEDPWTFGGGTKLEIKGGSGGAMA[letters of about 100 residues not shown]STVTRPDFDYWGQGTLVTVSSGGGGSGGGGSGGGASNFMLTQPHSVSESPGKTVTISCTRSSGSIARNYVQWYQQRPGSAPTTVIYEDNQRPSGVPDRFSGSIDSSSNSASLTISGLKTEDEADYYCQSYDSSNQRVFGGGTKVTVLGQPAAAGGGGSQVQLQQSGAELVRPGSSVKISCKASGYAFSSYWMNWVKQRPGQGLEWIGQIWPGDGDTNYNGKFKGKATLTADESSSTAYMQLSSLASEDSAVYFCARRETTTVGRYYYAMDYWGQGTSVTVSSASAAVECPPCPAPPVAGPSVFLFPPKPKDTLMISRTPEVTCVVVDVSHEDPEVQFNWYVDGVEVHNAKTKPREEQFNSTFRVVSVLTVVHQDWLNGKEYKCKVSNKGLPAPIEKTISKTKGQPREPQVYTLPPSREEMTKNQVSLTCLVKGFYPSDIAVEWESNGQPENNYKTTPPMLDSDGSFFLYSKLTVDKSRWQQGNVFSCSVMHEALHNHYTQKSLSLSPGK
# Biological target: human CD3 receptor complex (human, UniProt P07766; P09693; P04234)
# Experiment: cell-based or functional assay
# UniProt P07766, sequence (P07766 23-207, chain 1 of 3): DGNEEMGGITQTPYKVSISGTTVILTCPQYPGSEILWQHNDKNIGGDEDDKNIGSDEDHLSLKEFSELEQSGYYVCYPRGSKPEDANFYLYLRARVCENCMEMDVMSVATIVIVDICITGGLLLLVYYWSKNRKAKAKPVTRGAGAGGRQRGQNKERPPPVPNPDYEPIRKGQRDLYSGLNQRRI
# UniProt P07766, sequence (P09693 23-182, chain 2 of 3, further chain): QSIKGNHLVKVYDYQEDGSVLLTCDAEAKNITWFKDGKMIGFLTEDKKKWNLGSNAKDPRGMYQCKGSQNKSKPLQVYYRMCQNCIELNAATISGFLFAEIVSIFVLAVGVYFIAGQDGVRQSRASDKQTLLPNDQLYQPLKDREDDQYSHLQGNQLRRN
# UniProt P07766, sequence (P04234 22-171, chain 3 of 3, further chain): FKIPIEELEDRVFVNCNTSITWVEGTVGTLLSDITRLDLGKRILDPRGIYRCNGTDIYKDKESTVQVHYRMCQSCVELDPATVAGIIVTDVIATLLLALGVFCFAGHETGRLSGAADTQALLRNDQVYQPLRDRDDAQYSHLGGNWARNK
binder,measurement,value
B1,"Activity (EC50 for activation of Jurkat line cells, pM)",276 pM
